Test results taken from PubChem BioAssay AID1347073 (National Center for Advancing Translational Sciences (NCATS), 2019).
In all, about 45,000 compounds went through this assay and about 200 (0.44%) were called active. Roughly 7% stayed inconclusive and do not appear here. Calls come from the whole dose curve; as a rule, active = well fitted activation curve with a large enough effect; inconclusive = small, poorly fitted or top-dose-only effect; inactive = no such curve, though single readings can be large or run the other way. The list shows a part of the results.

assay: qHTS of TDP-43 Inhibitors: NCGC Sytravon Library Screen; conditions: yeast TDP-43 toxicity rescue, BacTiter-Glo growth, 24 h; series mostly up to 46.1 µM; growth rescue (activation): at the top concentration; note: 0% is about no effect; nearly all actives have a fitted effect of over 55% in size
Method in brief: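 TDP-43-expressing yeast, pregrown in raffinose, seeded at OD600 0.02 in galactose medium with compound for 24 hr at 30 deg C. Growth read by BacTiter-Glo luminescence, so rescue of toxicity appears as activation.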

With `Cc1ccc2c(c1)C(c1ccc(F)cc1)N(C(=O)c1ccccc1Br)CC(=O)N2` (configuration not stated) as the molecule, how does the “growth rescue (activation)” value read?
The value was inactive: 7.17%.

For `O=C(COC(=O)/C=C/c1ccccc1[N+](=O)[O-])Nc1ccc2[nH]c(=O)[nH]c2c1`, which “growth rescue (activation)” value is on record?
The value was inactive: 8.85%.

For `Cc1ccc(-c2nnc(SCC(=O)N(C)C)nc2-c2ccc(C)cc2)cc1`, which “growth rescue (activation)” value is on record?
Its value is inactive: 18%.

With `CCOCCCNS(=O)(=O)c1ccc(NC(=O)CN2C(=O)c3ccccc3C2=O)cc1` as the molecule, how does the “growth rescue (activation)” value read?
The value was inactive: -18.3%.

For `CCc1nc2ccc(C(=O)N3CCN(C)CC3)cn2c1N(C)CCCc1ccccc1`, which “growth rescue (activation)” value is on record?
Its value is inactive: 11.3%.

For `CN(C)c1ccc(C(=S)N2CCN(C(=S)Nc3ccccc3)CC2)cc1`, which “growth rescue (activation)” value is on record?
Its value is inactive: -3.89%.

For `O=C(CNCc1ccccc1Cl)Nc1ccccc1N1CCCCC1`, which “growth rescue (activation)” value is on record?
Its value is inactive: -3.73%.

With `Cc1ccc(C)c(OCCn2cc(C(=O)O)c3ccccc32)c1` as the molecule, how does the “growth rescue (activation)” value read?
The value was inactive: 16.8%.

For `COc1ccc(CNc2nc3nc(C)c(Cl)c(C)n3n2)cc1`, which “growth rescue (activation)” value is on record?
Its value is inactive: 37.6%.

Which “growth rescue (activation)” value does the source give for `Cc1ccc(C(=O)N/N=C\c2cccc(OC(=O)c3cccc(F)c3)c2)cn1` here?
Its value is inactive: 11.5%.

With `CCOC(=O)C1(Cc2ccccc2)CCCN(Cc2ccc(OCC)c(CO)c2)C1` (configuration not stated) as the molecule, how does the “growth rescue (activation)” value read?
The value was inactive: -4.49%.

Which “growth rescue (activation)” value does the source give for `COc1cc(/C=C2\SC(=N)N(c3ccc(F)cc3)C2=O)ccc1O` here?
Its value is inactive: 0.6%.

Which “growth rescue (activation)” value does the source give for `Cc1cc(=O)cc(C)n1-c1ccc(Cl)c(Cl)c1` here?
The value was inactive: 8.77%.

Which “growth rescue (activation)” value does the source give for `Cc1ccc(NC(=O)N2CCc3cc(S(=O)(=O)N4CCC(C)CC4)ccc32)cc1C` here?
Its value is inactive: -0.233%.

Which “growth rescue (activation)” value does the source give for `CC1(C(=O)Nc2cccc3ccccc23)CCN1C(=O)C1(c2ccccc2)CCCC1` (configuration not stated) here?
The value was inactive: 3.2%.

Which “growth rescue (activation)” value does the source give for `N=c1c2c(ncn1Cc1ccco1)Oc1ccc3ccccc3c1C2c1ccccc1` (configuration not stated) here?
The value was inactive: 20.4%.

For `CSc1nsc(SCC(=O)Nc2ccc(NC(C)=O)cc2)n1`, which “growth rescue (activation)” value is on record?
The value was inactive: -2.8%.

Which “growth rescue (activation)” value does the source give for `FC(F)(F)c1cccc(N2CCN(CC3CC=CCC3)CC2)c1` (configuration not stated) here?
The value was inactive: 7.2%.

Which “growth rescue (activation)” value does the source give for `Cc1ccc(C(=O)NC(C(=O)NC2CCCC2)c2ccccc2)cc1` (configuration not stated) here?
Its value is inactive: 0.784%.

Which “growth rescue (activation)” value does the source give for `O=C(Nc1cccc(NC(=O)c2cccs2)c1)c1cccnc1` here?
Its value is inactive: 12.6%.

For `CC(NS(=O)(=O)c1ccc(Br)cc1)C(=O)Nc1nc2ccccc2[nH]1` (configuration not stated), which “growth rescue (activation)” value is on record?
Its value is inactive: -0.0658%.

For `CCCCN(CC)S(=O)(=O)c1c(C)[nH]c(=O)[nH]c1=O`, which “growth rescue (activation)” value is on record?
The value was inactive: 6.91%.

Which “growth rescue (activation)” value does the source give for `O=C(CO/N=C/c1ccccc1OC(F)F)NC1CCCCC1` here?
Its value is inactive: 12.7%.

For `Cc1cccc(N2CC(C)Cn3c2nc2c3c(=O)n(CC(=O)OCc3ccccc3)c(=O)n2C)c1` (configuration not stated), which “growth rescue (activation)” value is on record?
Its value is inactive: -0.85%.

For `O=S(=O)(Nc1nc2ccc(Cl)cc2s1)c1cccs1`, which “growth rescue (activation)” value is on record?
The value was inactive: 8.02%.

Which “growth rescue (activation)” value does the source give for `Cc1sc2ncn(CC(=O)Nc3c(F)cccc3F)c(=O)c2c1S(=O)(=O)N1CCC(C)CC1` here?
The value was inactive: 3.49%.

For `CCCCC(=O)NC(c1ccc(Cl)cc1)c1ccc2cccnc2c1O` (configuration not stated), which “growth rescue (activation)” value is on record?
Its value is inactive: 28.8%.

With `Cc1ccc(C(=O)C[n+]2cc(Br)cc(Br)c2)cc1` as the molecule, how does the “growth rescue (activation)” value read?
Its value is inactive: 18.8%.

Which “growth rescue (activation)” value does the source give for `Cc1cc(C)c(S(=O)(=O)/N=C2/C=C(Sc3ncn[nH]3)C(=O)c3ccccc32)cc1C` here?
The value was inactive: -93.9%.

For `Cc1cc2c(=O)n(C)c(SCC(=O)NCC3CCCO3)nc2s1` (configuration not stated), which “growth rescue (activation)” value is on record?
Its value is inactive: 7.55%.

Which “growth rescue (activation)” value does the source give for `Cn1cc(/C=C/c2nc3ccccc3c(=O)n2-c2cccc([N+](=O)[O-])c2)c2ccccc21` here?
Its value is inactive: -7.7%.

With `OC[C@@H]1CN(Cc2ccco2)C[C@H](n2cnc3c(N4CCOCC4)ncnc32)O1` as the molecule, how does the “growth rescue (activation)” value read?
Its value is inactive: 19.7%.

For `CC(=O)Nc1ccc(S(=O)(=O)N2CC3(C)CC2CC(C)(C)C3)cc1` (configuration not stated), which “growth rescue (activation)” value is on record?
Its value is inactive: 10.2%.

Which “growth rescue (activation)” value does the source give for `CCc1cc(=O)oc2c3c(cc(OCC(=O)N[C@H](C(=O)O)[C@H](C)CC)c12)OC(C)(C)CC3` here?
Its value is inactive: -4.32%.

For `Cc1ccc(CN2CCNC(=O)C2CC(=O)N(C)C2CCCCC2)cc1` (configuration not stated), which “growth rescue (activation)” value is on record?
Its value is inactive: -7.94%.

Which “growth rescue (activation)” value does the source give for `O=C(NCC(c1cccnc1)N1CCN(c2ccc(F)cc2)CC1)c1ccccc1` (configuration not stated) here?
Its value is inactive: -6.09%.

For `Cc1[nH]c(=O)c(C#N)c(C)c1CCC(=O)NCc1ccc(Cl)cc1`, which “growth rescue (activation)” value is on record?
Its value is inactive: 4.66%.

For `O=C(c1ccc([N+](=O)[O-])s1)N1CCN(c2ccc(C(F)(F)F)cn2)CC1`, which “growth rescue (activation)” value is on record?
Its value is inactive: -1.36%.

Which “growth rescue (activation)” value does the source give for `CC1=Nc2ccccc2/C1=C/c1c(N)n2c(S(=O)(=O)CC(C)C)nsc2nc1=O` here?
Its value is inactive: 15.3%.

With `O=C(CSc1cccc[n+]1[O-])Nc1ccc2c(c1)OCCO2` as the molecule, how does the “growth rescue (activation)” value read?
Its value is inactive: -6.8%.

With `CC(C)OCCCN1CC(=O)N2C(c3ccccc3)c3[nH]c4ccccc4c3C[C@H]2C1=O` (some centres not stated) as the molecule, how does the “growth rescue (activation)” value read?
Its value is inactive: 18.3%.

Which “growth rescue (activation)” value does the source give for `CN(CC(=O)NC1CCCCCC1)S(=O)(=O)c1cnc[nH]1` here?
Its value is inactive: -3.93%.

For `Cc1nn(C(C)C)c(C)c1[C@@H]1C[C@H]2CN(Cc3cccc(Cl)c3)C(=O)[C@]23CCCN13`, which “growth rescue (activation)” value is on record?
The value was inactive: 29.5%.

With `COc1cccc(C(=O)OCCNC(=O)c2cccnc2)c1` as the molecule, how does the “growth rescue (activation)” value read?
The value was inactive: 11.9%.

Which “growth rescue (activation)” value does the source give for `O=C1CC(C(=O)Nc2cccc(F)c2)n2c(nc3ccccc32)N1` (configuration not stated) here?
The value was inactive: -18%.

For `COc1ccccc1C(=O)N/C(=N/c1nc(C)cc(C)n1)Nc1ccccc1`, which “growth rescue (activation)” value is on record?
Its value is inactive: 21.7%.

With `COc1ccc(NS(=O)(=O)c2cc(NC(=O)c3cnccn3)ccc2OC)cc1Br` as the molecule, how does the “growth rescue (activation)” value read?
Its value is inactive: -14%.

Which “growth rescue (activation)” value does the source give for `O=C(Nc1ccc(N2C(=O)C3CCCCC3C2=O)cc1Cl)c1cccs1` (configuration not stated) here?
Its value is inactive: 10.2%.

Which “growth rescue (activation)” value does the source give for `CC(=O)Nc1ccc2c(c1)NC(=O)CC2` here?
The value was inactive: -15.1%.

Which “growth rescue (activation)” value does the source give for `O=C(N/N=C/c1ccncc1)c1cc(-c2ccc(Br)s2)[nH]n1` here?
The value was inactive: -18.5%.

Which “growth rescue (activation)” value does the source give for `CCC1CSC(Nc2ccc(C(=O)/C=C/c3ccc(Br)cc3)cc2)=N1` (configuration not stated) here?
The value was inactive: 22.9%.

Which “growth rescue (activation)” value does the source give for `Cc1cc(NC(=O)CCC(=O)N(CC(=O)NC2CCCC2)c2ccc(Cl)cc2)no1` here?
Its value is inactive: 8.25%.

For `O=C(NNC(=O)c1cnccn1)c1ccc(Cl)cc1`, which “growth rescue (activation)” value is on record?
Its value is inactive: 1.41%.

With `CCCCNC(=O)N(O)C1N(/N=C/c2cccs2)C(=S)SC1(C)C` (configuration not stated) as the molecule, how does the “growth rescue (activation)” value read?
The value was inactive: 2.11%.

For `COc1cccc(C(=O)C2CCCN(Cc3cn(CC(N)=O)c4ccccc34)C2)c1` (configuration not stated), which “growth rescue (activation)” value is on record?
Its value is inactive: -5.81%.

Which “growth rescue (activation)” value does the source give for `C/C(=N\NC(=O)c1ccc(CSc2nncn2C)cc1)c1cccs1` here?
Its value is inactive: 6.92%.

For `O=C(Nc1ccc(Br)cn1)c1cccc(C(=O)Nc2ccc(Br)cn2)c1`, which “growth rescue (activation)” value is on record?
Its value is inactive: 18%.

Which “growth rescue (activation)” value does the source give for `O=C(O)/C=C/C(=O)N1CCN(S(=O)(=O)c2cc(C(F)(F)F)ccc2Cl)CC1` here?
The value was inactive: 3.82%.

Which “growth rescue (activation)” value does the source give for `O=S(=O)(Nc1ccccc1N1CCOCC1)c1cccs1` here?
The value was inactive: 35.1%.

With `CCCCN(C)CCC(=O)Nc1ccc(F)c(F)c1` as the molecule, how does the “growth rescue (activation)” value read?
Its value is inactive: 20%.

For `CCOC(=O)c1c(C)[nH]sc1=S`, which “growth rescue (activation)” value is on record?
Its value is inactive: 22.6%.

For `Cc1cccc(NC(=O)/C=C/c2ccc3c(c2)OCO3)n1`, which “growth rescue (activation)” value is on record?
The value was inactive: 4.22%.

For `Cc1cccc(NC(=S)NC2CCN(Cc3ccccc3)CC2)c1C`, which “growth rescue (activation)” value is on record?
The value was inactive: -14.9%.

For `COc1ccc(CCc2nnc(CCC(=O)N(C)Cc3ccnc4ccccc34)o2)cc1`, which “growth rescue (activation)” value is on record?
Its value is inactive: 3.05%.

With `CC1=CN2C(=N)/C(=C/c3ccc([N+](=O)[O-])o3)C(=O)N=C2S1` as the molecule, how does the “growth rescue (activation)” value read?
The value was inactive: -93.5%.

For `O=C(COc1ccc(Br)cc1F)N1CCN(c2ncccn2)CC1`, which “growth rescue (activation)” value is on record?
Its value is inactive: 22.7%.

With `O=C(NCCN1CCN(C(=O)c2cccc(Br)c2)CC1)C(=O)Nc1ccc(Br)cc1` as the molecule, how does the “growth rescue (activation)” value read?
Its value is inactive: 2.34%.
